Test results published in the supplement of paper PMC11417369.
± gives the standard deviation of the averaged measurements. Some of the results follow.

Test system: PfAP2-EXP AP2 domain (GST-tagged)
Test: gcPBM binding intensity (ln(normalized median fluorescence intensity)); higher = stronger DNA binding
Procedure, shortened: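 An Agilent 4 × 180k array carrying primer-extended double-stranded 36-bp intergenic genomic probes and negative controls received GST-tagged P. falciparum DNA-binding domains expressed in E. coli, about 25 μg on average, for 1 h. The binding buffer contained 1× PBS, 1% milk, 0.2 mg/ml BSA, 0.5% salmon testes DNA and 0.03% Triton X-100. Binding intensity is the top Masliner-normalised natural-log median intensity across replicate spots of either probe orientation, read after Alexa488 anti-GST antibody staining and a 488 nm scan.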

Row | Sequence | gcPBM binding intensity (ln)
1 | AAAATTAGGAGACATGCATGTAACGATAAATATAAC [TGCATGCA_site148] | 9.79 ± 0.35
2 | CTTTTTTAAAATATTTAACACACAATTTTAATGCAT [CACACA_site9303] | 8.39 ± 0.28
3 | ATTCTAATAATATATACACACACATATATATTTATA [CACACA_site8629] | 8.47 ± 0.31
4 | TTATATTTATATATTTGTACGTATGTATATAATTCA [XGTACX_site2993] | 8.31 ± 0.26
5 | TAAATAATTCTTTTAGTACACACGAATAAGCAGATA [CACACA_site305] | 8.95 ± 0.44
6 | GTTACATACATATACACACACATATATATATATATA [CACACA_site901] | 9.99 ± 0.35
7 | TAATTTTTATTCAAGAGTACACAAAAGATAACTAAA [XGTACX_site4060] | 8.51 ± 0.3
8 | TTCTTACACGTTTGCACACTAAAATATATATATATA [CACACA_site434] | 9.84 ± 0.23
9 | TAGATACCTATAGAAACATGCAATTGAATATATTTC [TGCATGCA_site402] | 8.68 ± 0.29
10 | TAAAAAAAATCATTCACACATATATGAAAAAAAAAA [CACACA_site5546] | 8.37 ± 0.72
11 | ATATTAAAGCCTTTTTGTACATATAAATAAACATAG [XGTACX_site4667] | 8.7 ± 0.36
12 | CTTGAAAGATTTTATTGTACTCATAAGATACATTTC [XGTACX_site3178] | 8.31 ± 0.36
13 | TCATACAATATTAAATGTACATATATATATATATAT [XGTACX_site8828] | 10.1 ± 0.34
14 | ATTTTTTTTTTTTTTTTTCATTTTTTTTTTTTTTTT [CACACA_negctrl_site1204] | 8.12 ± 0.49
15 | AACTCTTAAAAATAAACATGCAAATATTTACCTTCT [TGCATGCA_site986] | 8.5 ± 0.31
16 | TATATATTATATATATGTACATAATTCCATGTTTAG [XGTACX_site3943] | 8.71 ± 0.41
17 | TTTTTTTTCTTTTTTTTTTTTTCAAAAGCTTATAAT [CACACA_negctrl_site1526] | 8.16 ± 0.17
18 | TGTATAATCATATATACACACACATATATATATATA [CACACA_site8674] | 10.1 ± 0.24
19 | TTATATAAAAAAAAATGTACATATAATTGGTAAATT [XGTACX_site5180] | 8.77 ± 0.42
20 | GTGTATTTGGTGCGCACACACATGCAAAAAGAAATA [CACACA_site4768] | 9.29 ± 0.23
21 | AAAAATATTTAAAATACACACATATATATAATATAT [CACACA_site2006] | 8.37 ± 0.4
22 | TTGAAAATAATATGAAGTACATTATTTTTTTTTAAT [XGTACX_site4499] | 7.94 ± 0.27

Row | Sequence | gcPBM binding intensity (ln)
23 | AAAACTTTCCATGTTTGTACATAAAATATAATAATT [XGTACX_site2716] | 8.44 ± 0.41
24 | ACAAAATGTAAATAAACACACATATTTATATTTATA [CACACA_site6719] | 8.34 ± 0.24
25 | AATTCACCAAAAAAAGTGCATATTCAATATATATTA | 8.22 ± 0.27
26 | TTGGTGGATAAATTTACACACAATAATTTTCGTTCA [CACACA_site467] | 8.4 ± 0.27
27 | AATAAAATATTATGTGCATGCTGTTTTATTTATTAA [TGCATGCA_site102] | 9.22 ± 0.31
28 | ATAATTTCAATATTTAATATCATATATATATATTTT [GTGCAC_negctrl_site713] | 8.36 ± 0.31
29 | TAAAACAAAACAAAAATAGGATTATATTCCTTTTTT [CACACA_negctrl_site1003] | 8.09 ± 0.52
30 | AAATAAAAAAATACCCAACACCATGCCAAATGTGAA [CACACA_negctrl_site411] | 8.54 ± 0.56
31 | ATATATATATATATATGTACATATGTGTATATAACT [XGTACX_site495] | 10.1 ± 0.35
32 | TAAAATTCGAAAAATTGTACTATTTATATATCTGTA [XGTACX_site6478] | 8.13 ± 0.46
33 | ATCAACATTACATTTAGTACACATATATTTCTATGT [XGTACX_site4436] | 8.74 ± 0.27
34 | TAGTTAGGCCCTACATGTACATAATATATATTACTT [XGTACX_site1137] | 9.21 ± 0.48
35 | TATATAAGTATAAAATGTACATAAAATTTTATGTTA [XGTACX_site2613] | 8.53 ± 0.41
36 | CTAATTAATATTTGTACACACATATTTAACCTACTA [CACACA_site3191] | 8.48 ± 0.27
37 | TAAAAATTTACATGTTGTACATATAATTATATAATC [XGTACX_site4577] | 8.39 ± 0.33
38 | AGGCTGCCATATTATACACACATTTTTAAAAAAATT [CACACA_site3843] | 8.48 ± 0.26
39 | AAATATTACCATGTGAAAATTTTACTGCAACATGAA [TGCATGCA_negctrl_site609] | 8.71 ± 0.38
40 | TATAGCATATCTCACACACACATAATGAATATTATA [CACACA_site5877] | 8.58 ± 0.51
41 | ATATTAAACAGACACACACACATATATTTATTTATA [CACACA_site7564] | 8.44 ± 0.38
42 | TATAGCTATGTATTCACACATAATATAAACTTTAAT [CACACA_site5889] | 8.36 ± 0.59
43 | TGTATTATATAAAATTGTACATGCGAATTGTATAAC [XGTACX_site902] | 9.26 ± 0.46
44 | AAAATGAACTCACGAGCACACACACCCATATATATA [CACACA_site8247] | 8.76 ± 0.33
